Laboratory results from the supplement of paper PMC3334620.
In all, about 33,000 sequences were measured (“E-score (-0.5 to 0.5)”: median about -0.012, highest 2% from about 0.27 on). This is one part of the list.

molecular target: T1, Vhr1 (UniProt P40522); assay: PBM E-score (8-mer binding enrichment) (E-score (-0.5 to 0.5)); higher = stronger / more preferred TF binding; most listed sequences are background and not binding sites; conditions: protein concentration: 200 nM; construct: GST-full length
T1 sequence: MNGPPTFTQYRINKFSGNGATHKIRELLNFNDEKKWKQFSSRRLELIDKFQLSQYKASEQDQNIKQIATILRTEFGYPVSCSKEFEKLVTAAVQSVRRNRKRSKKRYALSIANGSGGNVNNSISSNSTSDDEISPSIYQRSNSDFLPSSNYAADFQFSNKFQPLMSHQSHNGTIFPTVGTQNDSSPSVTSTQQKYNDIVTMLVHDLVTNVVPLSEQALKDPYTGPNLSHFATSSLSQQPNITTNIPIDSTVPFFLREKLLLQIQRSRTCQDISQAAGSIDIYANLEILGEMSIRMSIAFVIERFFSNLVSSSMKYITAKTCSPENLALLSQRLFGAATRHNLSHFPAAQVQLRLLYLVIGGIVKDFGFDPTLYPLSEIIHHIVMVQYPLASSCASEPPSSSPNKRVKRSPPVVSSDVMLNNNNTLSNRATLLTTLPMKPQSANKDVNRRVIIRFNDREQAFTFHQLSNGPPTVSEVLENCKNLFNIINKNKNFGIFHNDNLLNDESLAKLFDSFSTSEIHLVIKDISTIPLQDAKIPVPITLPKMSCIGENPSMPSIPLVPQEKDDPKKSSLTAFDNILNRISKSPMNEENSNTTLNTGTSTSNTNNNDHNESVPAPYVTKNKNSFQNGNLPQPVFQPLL
Summary of the method: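 Yeast transcription factors, full-length or as DNA-binding domains, were expressed with a GST tag using PURExpress in vitro transcription/translation. At about 100-200 nM they were applied to universal all-10-mer Agilent arrays, double-stranded by primer extension on fresh or once-stripped slides. Fluorescent anti-GST detected bound protein, and masliner normalised the scans. E-scores for ungapped eight-base words, pooled with reverse complements, came from the Universal PBM Analysis Suite.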

| Sequence | PBM E-score |
| --- | --- |
| ATACCAAG | 0.126 |
| ACGTCGAC | 0.155 |
| ACCACTCT | -0.0166 |
| ACTCCTAC | 0.19 |
| AGACTCGG | 0.00302 |
| CTGCCCAC | -0.116 |
| GCATAAGC | -0.124 |
| CCGTGGAA | 0.0366 |
| CCTGGCAG | 0.0237 |
| CCCTAACC | -0.022 |
| TATGCTGA | 0.0447 |
| ACTGCAAA | -0.119 |
| TGCGAGAA | -0.0632 |
| CCTACTAA | 0.0375 |
| ACTTATCG | -0.0707 |
| CCGGTTCC | -0.0881 |
| CGAGCCCG | 0.167 |
| ACGAGGAG | -0.113 |
| AAGTGGGC | -0.00962 |
| AAAAGTTT | -0.116 |
| CGACCTCA | 0.018 |
| CCCTACGA | 0.051 |
| ATGAACCA | 0.294 |
| ATCAGCAT | 0.123 |
| CCCAGAGA | -0.101 |

| Sequence | PBM E-score |
| --- | --- |
| AATATACC | 0.121 |
| ACCATACC | 0.205 |
| CATGTGTC | 0.22 |
| TAAATATA | 0.207 |
| ACTGGCCT | -0.135 |
| GCTTGGCA | -0.106 |
| ACGACAAG | 0.0631 |
| GACAGTCC | -0.0807 |
| CTTCGAGA | -0.201 |
| GTCAAAAA | -0.206 |
| AAAGTGAC | 0.0798 |
| CCTAGTCA | 0.309 |
| AGGTACGG | -0.18 |
| ACAGGCGG | -0.0294 |
| CAGAGTAG | 0.0847 |
| ATGACATG | 0.0843 |
| CGCTGATA | -0.24 |
| ACGGCTGG | -0.0635 |
| TAACTGAA | 0.0328 |
| TTAGAAAA | -0.244 |
| ACTTTTCG | -0.158 |
| CTGAGCTA | -0.184 |
| GCAGTGCA | 0.0468 |
| ACCACGGA | -0.0454 |
| CACTTGTA | -0.0274 |

| Sequence | PBM E-score |
| --- | --- |
| GTCAGCTA | 0.125 |
| GTATGGCA | 0.0524 |
| CAGTATCA | -0.0094 |
| ATGCCACG | -0.178 |
| CAGTTCAC | -0.0289 |
| AGAGGCAC | -0.0437 |
| CACACAAA | 0.124 |
| GTGCGCGA | 0.0151 |
| ATTAACAG | -0.00382 |
| ATATTGTG | 0.198 |
| ATGCAGAA | -0.0273 |
| GCAGTAAA | -0.202 |
| AGTTTTCC | -0.0724 |
| AGCTTAAC | -0.226 |
| GCTGGCTA | -0.00876 |
| CCAGCGGG | 0.0637 |
| ATATGTAG | 0.0522 |
| AAAACACG | -0.0652 |
| ATGTGCAG | -0.105 |
| CCTAGGGC | -0.231 |
| ATTATTAC | 0.123 |
| CATGAATG | 0.231 |
| ATATCATG | 0.152 |
| CCTTCTAA | -0.156 |
| CGAATACA | 0.116 |

| Sequence | PBM E-score |
| --- | --- |
| CTATGCTC | -0.0112 |
| ATTAGGGA | -0.0413 |
| AAACGCTG | -0.293 |
| AAGGTGTC | 0.0328 |
| ACGGTAGT | 0.125 |
| AATAGGGG | 0.00726 |
| CGCAGGAG | 0.089 |
| GCCCACAC | 0.069 |
| TGCGGCAA | -0.104 |
| GTAACCAC | -0.00779 |
| CATACTTC | -0.111 |
| CTTCCTTC | -0.215 |
| AGAAAGAT | -0.0756 |
| CAGTGAGA | 0.00435 |
| TCCAAACA | -0.19 |
| CGCTTTTC | -0.123 |
| GACAAGAC | 0.16 |
| AACGTTGT | -0.0929 |
| CGAAGACG | -0.113 |
| CGATGTGA | 0.184 |
| ATACCTGG | -0.129 |
| ATCTTGAA | 0.00637 |
| AGGGTACA | 0.0556 |
| ACAGGGTC | 0.133 |
| CGTCTTAA | -0.254 |

| Sequence | PBM E-score |
| --- | --- |
| GTTTATGA | -0.0401 |
| CTCTGGCA | -0.0993 |
| CTTTTACC | -0.0677 |
| TTCTTCAA | -0.189 |
| AATCAGCC | 0.14 |
| TAAGATAA | -0.0467 |
| CTGTTGTC | 0.00208 |
| AAAACGGC | 0.0186 |
| CGGAACAA | -0.0228 |
| CGTGGGCC | -0.192 |
| AGCAAAAT | -0.0763 |
| CTGGACGA | -0.0855 |
| AGCTTCTC | -0.00946 |
| GGTGGCGA | 0.0497 |
| CACATACC | 0.0701 |
| GAACTTAC | -0.175 |
| GTCACGAA | 0.252 |
| CGGACAAA | -0.101 |
| AGTCGGTC | 0.0847 |
| AATGTTAC | -0.114 |
| CGGTCTTA | -0.172 |
| CAAAATAA | 0.0241 |
| ACGTCCTC | -0.207 |
| AGATACGC | 0.132 |
| CACATATC | 0.194 |

| Sequence | PBM E-score |
| --- | --- |
| ATCTGAGA | -0.124 |
| ATTCTACC | -0.0608 |
| GATGACCA | 0.13 |
| ATACAAGC | 0.143 |
| CGACTGGC | 0.134 |
| ACTTTATA | -0.108 |
| ACATGTGA | 0.0459 |
| CAGGGTGG | 0.213 |
| CTGTTGAC | -0.194 |
| GTCAGGGA | 0.182 |
| GCTCGGTA | -0.0594 |
| AGCATAAC | -0.0434 |
| TACGGATA | 0.0669 |
| ATTGACTC | 0.3 |
| ATGTTCGA | 0.0207 |
| CTTTGTCA | -0.0991 |
| ACCGCAAG | 0.01 |
| GCTTGAAA | -0.118 |
| GCGCTTCC | -0.104 |
| ATAACGTC | -0.156 |
| GGCAGACA | -0.0678 |
| GCCCCAAA | -0.169 |
| TCGCTTCA | -0.172 |
| AATACACC | 0.0607 |
| CGACCTAG | 0.147 |

| Sequence | PBM E-score |
| --- | --- |
| GATCATAC | 0.114 |
| AGGAATGG | -0.0959 |
| AGACTTCC | -0.161 |
| ACGTGCCC | -0.0998 |
| GCCGCCCA | 0.128 |
| GACTGCCA | 0.168 |
| AGTCAAAG | 0.0566 |
| ACGCACAA | -0.0344 |
| AATGAAGG | -0.132 |
| CCTAGAGC | -0.125 |
| CACGCCTA | -0.125 |
| CGGATTAC | -0.0575 |
| GGCTTTCA | -0.112 |
| GTTTCACA | -0.102 |
| CGTTGGAG | -0.158 |
| TCTCTACA | -0.0384 |
| GCGGTCCC | -0.0911 |
| CAGAGAAC | -0.126 |
| TTAGGGAA | -0.185 |
| AGGCACGA | -0.0194 |
| ATGAAAGC | -0.0896 |
| CCTCGATA | 0.127 |
